Data as given in the supplement of paper PMC10441789.
Some of the results follow. Antibody binding of pooled human sera (four to six donors per pool; dilution not stated) to peptides of the Trypanosoma cruzi antigen TSSA on microarrays. Quantile-normalised fluorescence in arbitrary units, mean of duplicate arrays; higher = more binding. No active / inactive call. The uninfected pools are read here as the healthy donors of the same country. The strongest signals lie near the top of the scale (about 60,000).

Legend:
Assay in all cases: antibody binding signal (normalised fluorescence) (arbitrary fluorescence units); higher = stronger serum antibody binding to peptide
[1] = test system: pooled sera of chronic Chagas disease patients, Argentina
Protocol: (§1)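 Microarray of 15-residue peptides over residues 30-55 of Trypanosoma cruzi TSSAII, each with 1 to 10 substitutions at naturally variable positions, probed with one serum pool per country.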

[2] = test system: pooled sera of chronic Chagas disease patients, Bolivia
Protocol: as §1

[3] = test system: pooled sera of chronic Chagas disease patients, Brazil
Protocol: as §1

[4] = test system: pooled sera of chronic Chagas disease patients, Colombia
Protocol: as §1

[5] = test system: pooled sera of chronic Chagas disease patients, Mexico
Protocol: as §1

[6] = test system: pooled sera of chronic Chagas disease patients, USA
Protocol: as §1

[7] = test system: pooled sera of uninfected people, Argentina
Protocol: as §1

[8] = test system: pooled sera of uninfected people, Bolivia
Protocol: as §1

[9] = test system: pooled sera of uninfected people, Brazil
Protocol: as §1

[10] = test system: pooled sera of uninfected people, Mexico
Protocol: as §1

[11] = test system: pooled sera of uninfected people, USA
Protocol: as §1

Sequence	antibody binding signal [1]	antibody binding signal [2]	antibody binding signal [3]	antibody binding signal [4]	antibody binding signal [5]	antibody binding signal [6]	antibody binding signal [7]	antibody binding signal [8]	antibody binding signal [9]	antibody binding signal [10]	antibody binding signal [11]
TISTPPSGKDNKTAA	7940	1650	3390	1970	16000	3410	1400	556	268	105	258
DNKAAAGEAPSPSGA	323	617	14500	167	210	10700	152	244	318	303	153
KDKKAAAGGAPSQPG	221	188	390	1490	252	198	113	86.8	109	72.3	132
PPSGTEKKTAAGEAP	22800	10400	16600	891	1640	4850	901	344	514	173	263
DKKTAAGGTPSPPGA	779	239	175	10500	426	1760	150	144	793	268	248
PPSGKDNKAAAGEAP	428	515	5200	715	2400	8400	445	702	175	134	192
PSGTDKKPAAGEAPS	9110	4950	32500	11800	3510	13400	205	727	504	3500	268
KEKKAATGETPSPPG	789	534	6210	177	202	7390	277	122	103	85.3	580
ISTPPSGTDNKPATG	37800	45400	51000	4290	10100	27200	1180	1450	879	693	485
KDKKPATGETPSQPG	24500	4020	34500	142	129	18100	243	279	168	664	140
TSSTPPSGKDNKAAA	10500	1420	4580	600	15400	2300	1130	491	129	89.8	373
PSGKENKPATGETPS	36900	20200	32800	3270	4810	29400	7800	4470	437	2010	324
TPPSGKDKKAATGET	1620	403	2020	433	21700	821	315	366	115	118	126
TEKKAAAGGAPSPPG	784	218	257	7620	948	2140	223	163	607	222	269
SSTPPSGTDNKAATG	32800	47900	51100	1200	10100	20000	986	650	1770	293	284
GTDKKPAAGEAPSQS	715	7280	20900	7070	625	16100	94.4	253	164	657	120
GKDKKPATGGAPSQP	538	549	7710	613	857	1220	195	258	84.8	78.7	90.4
SGTDKKAAAGGTPSP	370	312	1200	12800	786	1880	166	143	1180	591	207
EKKPATGGTPSPPGA	918	359	497	2460	717	447	292	887	969	155	778
PPSGTEKKPATGGAP	35800	9550	32300	950	5830	6300	1570	1600	449	375	1110
PPSGTDNKPATGGTP	27100	41200	48500	3800	3790	15600	972	1240	1110	1020	422
KDNKTATGGTPSQPG	441	227	281	3380	305	454	674	156	164	636	155
TPPSGKENKPAAGGA	16800	11900	13400	1810	5910	13600	5800	2170	267	217	704
DKKPAAGETPSPPGA	415	223	8660	136	264	2200	124	254	215	115	292
KKTAAGEAPSPPGAS	168	298	371	303	212	3400	306	243	106	101	324
GKDNKPATGEAPSQP	51900	49900	55500	2400	2550	42000	1140	944	301	335	146
TENKAATGETPSPPG	24100	5000	21500	230	210	9910	137	211	173	151	1960

Sequence	antibody binding signal [1]	antibody binding signal [2]	antibody binding signal [3]	antibody binding signal [4]	antibody binding signal [5]	antibody binding signal [6]	antibody binding signal [7]	antibody binding signal [8]	antibody binding signal [9]	antibody binding signal [10]	antibody binding signal [11]
GTEKKTAAGEAPSQS	1240	8630	2870	973	1120	7340	235	943	168	147	105
STPPSGKEKKAATGE	18200	316	1090	582	29000	1610	547	609	106	105	187
PPSGKDKKPAAGETP	1360	1310	1210	1080	45200	1790	388	339	132	84.2	116
GKENKTATGEAPSQS	21100	13200	25600	13600	11800	27600	561	156	199	259	163
GKDNKPAAGGAPSPP	1740	373	2190	2670	4010	2250	265	512	93.4	133	135
SGTDKKPAAGGTPSP	748	2820	26900	16200	2430	1680	204	333	2440	2330	478
EKKPATGGAPSQPGA	1430	1120	15000	1730	974	1750	375	1230	189	192	697
TEKKTAAGGTPSQPG	1300	227	401	17000	805	2880	500	120	976	1410	278
SGKENKPATGGTPSQ	3440	1340	15500	3510	5000	16400	9540	4330	231	453	226
TPPSGKEKKPATGGT	9700	411	547	619	32700	1140	364	471	366	115	220
TISTPPSGTEKKAAT	31200	2390	28400	375	11000	3370	929	312	170	110	172
KTAAGGAPSPSGASS	178	246	298	7400	2590	306	271	119	144	95.7	228
DNKAATGEAPSQSGA	26400	44800	38600	89.8	197	27500	234	133	158	98.3	164
KENKPATGGAPSQPG	503	1050	24500	275	724	3630	350	761	144	120	177
PSGKEKKAATGGAPS	10800	2560	8720	13900	15600	7430	412	363	126	113	156
STPPSGKDNKAAAGE	40000	25200	11500	156	36400	3930	419	921	172	119	132
SSTPPSGKEKKTAAG	13300	200	301	957	6780	723	284	221	109	96.6	177
KDKKTATGGTPSQPG	318	256	222	1280	212	1050	359	72.8	129	397	70.5
GKDNKTATGEAPSQP	18000	13700	37600	8220	7390	21800	387	266	187	140	184
TISTPPSGKDNKAAT	4790	480	2540	374	13400	1810	317	307	163	96.8	178
NKTAAGGTPSPPGAS	1240	359	2210	5160	591	1440	622	1160	1550	914	1630
PPSGTDKKAAAGEAP	8420	12900	28100	3750	36500	9450	432	416	504	2880	220
GTENKAAAGGAPSQS	36000	402	1950	3480	1230	800	184	415	182	158	247
KENKPAAGGTPSQPG	270	238	2680	1240	447	1370	335	237	444	255	187
EKKAATGEAPSQPGA	26400	12900	44000	362	714	26100	718	799	150	315	966
ENKTAAGETPSPSGA	262	1050	598	273	328	2340	154	218	202	155	461
ENKAAAGETPSPPGA	189	605	13200	288	232	3080	106	214	109	114	348
